Measurements reported in PubChem BioAssay AID1963576 (National Center for Advancing Translational Sciences (NCATS), 2024).
The whole screen tested about 46,000 compounds, of which about 60 (0.1%) were called active. Not shown: some 3% with an inconclusive outcome. Calls come from the whole dose curve; as a rule, active = well fitted inhibition curve with a large enough effect; inconclusive = small, poorly fitted or top-dose-only effect; inactive = no such curve, though single readings can be large or run the other way. Some of the results follow.

assay: Primary qHTS assay for Inhibitors of ovarian cancer metastasis using an organotypic tumor microenvironment (TME) model.; note: nearly all actives have a fitted effect of over 65% in size;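 for activity change, negative = inhibition: plate controls were DMSO wells for no effect and tomatine positive control wells for full effect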; conditions: SKOV3ip1-GFP adhesion/invasion on 3D omental model, fluorescence; series mostly up to 45.8 µM; activity change, negative = inhibition: at the top concentration
Summary of the method: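 A 3D layer of primary human omental fibroblasts, mesothelial cells, fibronectin and collagen I, grown 48 hr, received SKOV3ip1-GFP cells in serum-free medium plus compounds at 0.36-46 umol/L. After 2 hr RT and 16 hr 37 C, fixed adherent GFP cells were counted; normalized to DMSO and tomatine.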

outcome, inactive:
Cc1ccc(Cn2cccc2C2=NC(C)(C)CO2)cc1, COc1ccccc1OC(C)C(=O)NCC1(N2CCOCC2)CCCCC1 (stereo not given), COc1ccc(NC(=O)CCNS(=O)(=O)c2cccc3nonc23)cc1, CCOc1ccc(CNC(=O)c2cc3oc4ccccc4c3n2C)cc1, Cc1c(Cl)ccc2sc(N3CCN(C(=O)c4ccco4)CC3)nc12, COC(=O)c1ccc(Nc2ncnc3c2nc2n3CCCC2)cc1, CCOc1ccccc1NC(=O)C1CCN(S(=O)(=O)c2c(C)noc2/C=C/c2ccc(C)cc2)CC1, COc1ccccc1-c1nc(-c2ccc(Br)o2)no1, Cc1cccc(-n2c(SCC(N)=O)nc3c(oc4ccccc43)c2=O)c1, CCOC(=O)N1CCN(C(=O)CN(c2cccc(Cl)c2C)S(=O)(=O)c2ccc(C)cc2)CC1, COc1ccc(Cl)cc1NC(=O)Cn1ccn(Cc2ccc(C)cc2)c(=O)c1=O, O=C(c1cc2c(=O)oc3ccccc3c2s1)N1CCN(c2cccc(Cl)c2)CC1, COc1ccccc1OCCn1cc(C(=O)c2cccs2)c2ccccc21, Cc1nn(CC(=O)NC2CC2)c(=O)c2cc3ccccc3n12, COCCn1c(SCC(=O)c2cc(C)ccc2C)nc2cc(C(=O)NC3CCCC3)ccc2c1=O, CCC1CN(C(=O)N2CCC(C(=O)NCc3ccc(OC)cc3OC)CC2)c2cc(C)ccc2O1 (stereo not given), Cc1c(Cl)cccc1-n1ncc(C(=O)Nc2ccc3c(c2)OCCO3)c1C1CCN(C(=O)OC(C)(C)C)CC1, CS(=O)(=O)N(CC(=O)NCCSc1ccccc1)c1cc(C(F)(F)F)ccc1Cl, COc1ccc(-c2noc(-c3ccc(NC4CCCC4)c([N+](=O)[O-])c3)n2)cc1, O=C(c1ccccc1)c1ccccc1NC(=O)c1ccccc1C(=O)O, CC(=O)c1ccc(N2CCN(C(=O)c3cc4cc5cc(C)ccc5nc4s3)CC2)cc1, CCCCOc1ccc(-c2cc3c(=O)n(CC(=O)Nc4ccc(Cl)cc4Cl)ccn3n2)cc1, COc1cccc(CNC(=O)c2cc(=O)[nH]c3ccc(S(=O)(=O)N4CCCCC4)cc23)c1, CCn1cc(C(=O)OCC(=O)Nc2cc(C)cc(C)c2)c(=O)c2ccc(C)nc21, COC(=O)c1scc(-c2ccc(C)cc2)c1S(=O)(=O)Nc1cccc(C(F)(F)F)c1, CCOc1ccc(CC(=O)Nc2nnc3n2CCS3)cc1

Activity change, negative = inhibition, inactive:
CCS(=O)(=O)N1N=C(c2ccc(C)cc2)CC1c1cc2ccc(OC)cc2nc1Cl (stereo not given) 7.98%, Cc1ccc(OCC(=O)NCC2(N3CCN(C)CC3)CCCCC2)cc1C 4.36%, CCCC(=O)N1c2ncnn2C2(CCCCC2)[C@@H]2CCCC[C@@H]21 -0.706%, CCCCOc1ccc(-c2nonc2NC(=O)c2ccco2)cc1 -1.57%, CN(C)c1ccc(CNc2nc(-c3ccco3)nn2S(=O)(=O)c2ccc3ccccc3c2)cc1 5.63%, O=C(CSc1nc2c(c(=O)[nH]1)CCC2)Nc1ccccc1F 16.9%, COc1ccc(NC(=O)Cn2cnc3sc(C)c(S(=O)(=O)N4CCN(C)CC4)c3c2=O)cc1OC -4.46%, Cc1ccc(C)c(NC(=O)Cn2cc(C(=O)c3ccncc3)c(=O)c3cc(F)ccc32)c1 -0.492%, COc1ccccc1CNc1ccc(-c2nc(C(C)C)no2)cc1[N+](=O)[O-] -1.39%, Cc1ccc(CCNC(=O)CN(c2ccc(C)cc2)S(=O)(=O)c2c(C)noc2C)cc1 8.83%, CC(C)CCOc1ccc(C(=O)Nc2sc3c(c2C#N)CCCCC3)cc1 -15.9%, CCc1cc(Nc2nccc(-c3c(-c4ccc(OC)c(C(=O)Nc5c(F)cccc5F)c4)nc4ccccn34)n2)c(OC)cc1N1CCC(N2CCN(S(C)(=O)=O)CC2)CC1 2.13%, O=C(Nc1ccc(F)cc1)[C@H](Cc1ccccc1)N1Cc2ccccc2C1=O -25.8%, CCOC(=O)C1CCN(C(c2ccccc2OC)c2c(O)cc(C)n(CCOC)c2=O)CC1 (stereo not given) 0.502%, COc1cccc(-c2nc(-c3ccc(-c4ccccc4)nc3OC)no2)c1 1.01%, Cc1ccccc1-c1nc(CNC(=O)Nc2ccccc2)c(C)o1 4.28%, Cc1ccccc1OCc1ccc(-c2nc(C#N)c(NCCCN(C)C)o2)o1 -1.32%, Cc1ccc(C(=O)Nc2ccc(Cl)c(-c3nc4ncccc4o3)c2)c(C)c1 7.17%, CCOc1ccc(C(=O)NCCn2cc(SCC(=O)NCCc3ccc(OC)c(OC)c3)c3ccccc32)cc1 -1.99%, O=C(Nc1ccccc1)c1cccc2c(=O)c3c([nH]c12)CCCC3 1.6%, Cc1ccc(-n2nc3c(N4CCC(C(=O)NC(C)C)CC4)nnc(C)c3c2C)cc1 9.5%, Cn1c(SCc2ccc(F)cc2)nc2ccc(C(=O)NCc3ccc(F)cc3)cc21 4.71%, CCN(CC)CCN(C(=O)c1ccco1)c1nc2ccc(Cl)cc2s1 -11.3%, Cc1cc(C)cc(NC(=O)c2cc(S(=O)(=O)N3CCCCCC3)cn2C)c1 10.6%, Nc1ccn([C@H]2CC[C@@H](CO)O2)c(=O)n1 -6.33%, Cc1ccc(C2Nc3ccccc3-n3c(-c4ccccc4)c4c(=O)n(C)c(=O)n(C)c4c32)o1 (stereo not given) -5.34%, Cc1ccc(NC(=O)Cn2c(-c3ccc4c(c3)OCO4)cn(-c3ccccc3)c2=O)cc1C -6.81%, COc1ccc(-c2nn(C)c3sc(C(=O)Nc4cccc(F)c4)cc23)cc1OC -34.6%, CCc1ccc(NC(=O)c2ccc3c(c2)nnn3CC)cc1 1.94%, CCOc1ccc(-c2nc(SC(C(C)=O)C(=O)N(C)C)c3c(=O)n(C)c(=O)n(C)c3n2)cc1 (stereo not given) 4.3%, CCN(CC)S(=O)(=O)c1ccc2c(c1)N(CC(=O)N1CCN(c3cccc(C(F)(F)F)c3)CC1)C(=O)CO2 3.73%, Cc1ccc2cc3cc(C(=O)Nc4ccc(F)cc4Cl)oc3nc2c1 0.588%, CO[C@H]1/C=C\O[C@@]2(C)Oc3c(C)c(O)c4c(O)c(c(C=NN5CCN(C6CCCC6)CC5)c(O)c4c3C2=O)NC(=O)C(C)=CC=C[C@H](C)[C@H](O)[C@@H](C)[C@@H](O)[C@@H](C)[C@H](OC(C)=O)[C@H]1C 4.64%, Cc1ccccc1OCC(=O)OCc1cc(=O)n2ccsc2n1 -3.18%, COCCNC(=O)CCc1nc2cccnc2n1Cc1ccc(OC)cc1 -11.9%, CCc1ccc(OC(C)C(=O)Nc2c(C(=O)c3ccccc3)oc3ccccc23)cc1 (stereo not given) 10.6%, COc1ccc(Cl)cc1NC(=O)c1cc2c(s1)-c1ccccc1OC2 -5.38%, COc1cccc(C2C(C(=O)Nc3ccccc3)=C(C)Nc3nc(-c4ccccc4)nn32)c1 (stereo not given) -3.83%, COc1ccc(OC)c(NC(=O)CSc2cn(CC(=O)N3CCOCC3)c3ccccc23)c1 -1.33%, Oc1c(Br)cc(Br)cc1-c1nc2ccccc2s1 -0.168%, Cc1ccc(-c2nc(CS(=O)CC(=O)N3CCN(c4ccccc4)CC3)c(C)o2)cc1 (stereo not given) 5.93%, CCCN(CCC)C(=O)C1CCCN(S(=O)(=O)c2ccc3c(c2)oc(=O)n3C)C1 (stereo not given) -16.3%, Cc1ccc(C(=O)c2oc3ccccc3c2NC(=O)c2cc(-c3ccccc3)on2)cc1F -0.114%, Cc1ccc(C)c(NC(=O)C2CCCN(S(=O)(=O)c3ccc4[nH]c(=O)ccc4c3)C2)c1 (stereo not given) -15.3%, CCN(CC)c1cc(C)c2cc(NC(=O)/C=C/c3ccc(C)cc3)ccc2n1 -19.8%, COc1ccc(NC(=O)[C@@H](c2ccccc2)N2Cc3ccccc3C2=O)cc1OC 49.2%, CC(=O)Nc1nonc1-c1nnc(SCC(=O)Nc2ccc(C)cc2C)n1C -7.17%, CCOc1ccc(CNC(=O)c2c(C)nn(-c3ccc(F)cc3)c2-n2cccc2)cc1 8.59%, Cc1noc(Cn2c(=O)c3cc4c(cc3n(CC(=O)Nc3cccc(Cl)c3)c2=O)OCO4)n1 -10.6%, Cc1ccc(-n2nc(C(=O)NCCN(C)C)c(=O)n(C)c2=O)cc1 -3.36%, Cc1ccc(CSCC(=O)N2CCN(c3cc(Cl)ccc3C)CC2)cc1 -5.07%, CC1CCc2c(sc(NC(=O)COc3ccccc3)c2C(=O)Nc2ccccc2Cl)C1 (stereo not given) 6.41%, CCOc1cccc2cc(-c3nnc(Nc4ccc(F)c(Cl)c4)s3)c(=O)oc12 4.61%, Cc1ccc(-c2nn(CC(=O)NC3CCCCC3)c3c2cnc2ccc(F)cc23)cc1C -7.24%, Cn1c(=O)[nH]c(=O)c2c1nc1n(CCO)c(-c3ccccc3)cn21 16.7%, O=C(CSc1nc2c(cnn2-c2ccc(F)cc2)c(=O)[nH]1)Nc1ccc(Br)cc1 -7.13%, COc1cccc(NC(=O)CC2C(=O)OCCN2Cc2ccccc2)c1 (stereo not given) 18.2%, COc1cccc(-c2cc(=O)c3ccccc3o2)c1N -16.2%, Cc1ccc2oc(C(=O)N(Cc3ccccc3F)C3CCS(=O)(=O)C3)c(C)c2c1 (stereo not given) -6.04%, Cc1[nH]c2ccccc2c1C(=O)C(=O)NC1CC(=O)N(c2cccc(F)c2)C1 (stereo not given) -2.11%, COc1ccc(C2C(C(N)=O)=C(C)Nc3nc(-c4ccccc4Cl)nn32)cc1 (stereo not given) 20.5%, Cc1ccc(Cl)cc1NC(=O)CN(C)S(=O)(=O)c1ccc2c(c1)n(C)c(=O)c(=O)n2C -7.02%, Cc1cccc(C)c1Nc1c(-c2ccc(Cl)s2)nc2ncccn12 -18.1%, CC(C)C(=O)OC1=CN(Cc2ccccc2)S(=O)(=O)c2ccccc21 6.43%, COc1ccccc1CNC(=O)c1ccc2c(c1)sc1nc(-c3ccc(F)cc3)cn12 3.01%, COc1ccc(CCNC(=O)c2cc(-c3ccccc3)nc3ccccc23)cc1OC 58.2%, CC(C)c1nnc(N2C(=O)c3oc4ccccc4c(=O)c3C2c2cccc(O)c2)s1 (stereo not given) 12.4%, O=C(CSc1cn(CC(=O)N2CCCCCC2)c2ccccc12)Nc1ccccc1F -16%, CCc1nnc2c(NCc3ccccc3OC)nc3ccccc3n12 8.37%
